In PubChem BioAssay AID485364 (National Center for Advancing Translational Sciences (NCATS), 2010):
The whole screen tested about 360,000 compounds, of which about 11,000 (3.1%) were called active. The shares of active, inactive and inconclusive entries below differ from those in the screen. The call rests on the fitted dose curve; in most records, active means well fitted inhibition curve with a large enough effect; inconclusive means small, poorly fitted or top-dose-only effect; inactive means no such curve, though single readings can be large or run the other way. Potencies of inconclusive entries are left out as doubtful fits.

target: Schistosoma mansoni thioredoxin glutathione reductase (TGR) (UniProt Q962Y6); experiment: qHTS Assay for the Inhibitors of Schistosoma Mansoni Peroxiredoxins; conditions: purified TGR, DTNB reduction, TNB absorbance 405 nm; series mostly up to 114 µM; further: nearly all actives have a fitted effect of over 60% in size
Summary of the method: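 Kinetic colorimetric format: TGR-catalysed, NADPH-driven DTNB reduction monitored via TNB absorbance. Enzyme dispensed at 20 nM; compound exposure 15 min at room temperature before reaction start.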
Potency means the concentration at half of the fitted maximal effect; tags describe the fitted curve by direction and shape.

Row | SMILES | Potency
1 | O=C(OCC#CCSc1nnc(-c2ccncc2)o1)c1cccs1 | inconclusive [inhibitor, partial curve]
2 | Cc1cc2nc(-c3cccc(NC(=O)C(C)C)c3C)oc2cc1C | inactive
3 | Nc1ncc(S(=O)(=O)Nc2ccc(OC(F)(F)F)cc2)cn1 | inconclusive [inhibitor, partial curve]
4 | Oc1ccc(Br)cc1/C=N/N1CCN(Cc2ccccc2)CC1 | inactive
5 | Cn1cnnc1SCC(=O)Nc1sc2c(c1C(N)=O)CCC2 | inconclusive [inhibitor, partial curve]
6 | Cc1c(NC(=S)Nc2ccccc2C(F)(F)F)cccc1[N+](=O)[O-] | inconclusive [inhibitor, partial curve]
7 | Cc1ccc(NC(=S)NCC2CCN(C(C)c3ccccc3)C2)cc1C (stereo not drawn) | inconclusive [inhibitor, partial curve]
8 | N#CC(c1ccc(Cl)nn1)c1ccccc1Cl (stereo not drawn) | inactive
9 | CCOC(=O)Cc1csc(NC(=O)c2sc3nc4c(C)cc(C)cc4cc3c2N)n1 | inactive
10 | O=C(/C=C/c1ccco1)NC(=S)Nc1cc(-c2nc3ccccc3s2)ccc1Cl | inconclusive [inhibitor, partial curve]
11 | Cc1ccc2nc(N=C(N)N)nc(C)c2c1 | inactive
12 | CCC1CCCCN1C(=O)NC(=O)c1ccccc1 (stereo not drawn) | inactive
13 | CCN(CC)c1ccc(CNS(=O)(=O)c2cc3c(cc2C)NC(=O)CO3)cc1 | inactive
14 | COc1ccc2cc(CCNC(=O)CC(C)(C)C)c(=O)[nH]c2c1 | inactive
15 | Cc1ccc(S(=O)(=O)Cn2nnnc2C(C(C)C)N2CCSCC2)cc1 (stereo not drawn) | inconclusive [inhibitor, full curve]
16 | CCOC(=O)C1=CC[C@H]2c3c(c4ccc(OC)cc4n3C)C(=O)C1N2S(=O)(=O)c1ccc(C)cc1 | inconclusive [inhibitor, partial curve]
17 | CC(=O)N(C)c1ccc(N=NC2C(=O)N(C(N)=S)N=C2C)cc1 (stereo not drawn) | inconclusive [inhibitor, single point]
18 | CC1(OC(=O)C2CCCC2)C(=O)C=C2C=C(c3ccsc3)N(c3ccccc3)C=C2C1=O (stereo not drawn) | inconclusive [inhibitor, single point]
19 | CN(CC(=O)Nc1ccccc1C(F)(F)F)Cc1c(O)ccc2ccccc12 | active: 1 µM
20 | COCCNC(=O)c1c(N)sc2c1CCCC2 | inconclusive [inhibitor, partial curve]
21 | CCC(=O)Nc1ncc2c(n1)CC(c1ccco1)CC2=O (stereo not drawn) | inconclusive [inhibitor, partial curve]
22 | O=C(CCn1cccc1)NCc1ccc(Cl)cc1 | inconclusive [inhibitor, partial curve]
23 | COc1ccc(OCc2nc(N)nc(Nc3ccccc3OC)n2)cc1 | inconclusive [inhibitor, partial curve, poor fit]
24 | Cc1ccc(S(=O)(=O)C(CNC(=O)c2ccc(C(F)(F)F)cc2)c2ccco2)cc1 (stereo not drawn) | inconclusive [inhibitor, partial curve]
25 | Cc1nn(-c2ccc(Br)cc2)c(=O)c2ccccc12 | inactive

Row | SMILES | Potency
26 | CCN(CC)CCCN(Cc1cc2cc3c(cc2[nH]c1=O)OCO3)C(=S)NC | inconclusive [inhibitor, partial curve, poor fit]
27 | COc1ccc(NC(=O)COC(=O)c2ccc3c(c2)OCCO3)cc1OC | inactive
28 | CC(=O)Nc1ccc2nc(NC(=O)c3ccc([N+](=O)[O-])o3)sc2c1 | inconclusive [inhibitor, partial curve]
29 | O=C(NC1CCCCC1)c1ccc(S(=O)(=O)NCc2ccco2)cc1 | active: 44.7 µM
30 | COC(=O)[C@@]1(Cc2ccc(OC)cc2)[C@@H]2C(=CC(=O)[C@H]2CC(=O)C(=O)N2CCCC2)CN1C(=O)c1ccccc1 | inconclusive [inhibitor, partial curve]
31 | CCN(CC)CCN(C(=O)CCOc1ccccc1)c1nc2c(F)cc(F)cc2s1 | inconclusive [inhibitor, full curve]
32 | Clc1cccc(-c2nn3c(COc4ccccc4)nnc3s2)c1 | inconclusive [inhibitor, full curve]
33 | O=C(CSc1ccccc1)Nc1cccc(S(=O)(=O)N2CCCCC2)c1 | inconclusive [inhibitor, single point]
34 | CCOC(=O)CS(=O)(=O)c1nc(-c2ccccc2)cc(C(F)(F)F)n1 | inconclusive [inhibitor, full curve]
35 | O=C(Nc1ccc(F)cc1)c1ccc2c(c1)NC(=O)c1ccccc1S2 | inconclusive [inhibitor, single point]
36 | CN(Cc1ccco1)S(=O)(=O)c1nnc(NC(=O)c2ccccc2)s1 | inconclusive [inhibitor, full curve]
37 | CCCCCCC(O)(c1ccc(OC)cc1)C(CN1CCOCC1)c1ccccc1 (stereo not drawn) | inactive
38 | CCC(C)NC(=O)C1c2ccccc2C(=O)N1Cc1ccc(F)cc1 (stereo not drawn) | inactive
39 | O=C(Cc1ccc2c(c1)OCCO2)Nc1ccc(Cl)c(S(=O)(=O)N2CCOCC2)c1 | inactive
40 | COc1ccc(C2C=C(C)Nc3nc(SC)nn32)cc1 (stereo not drawn) | inconclusive [inhibitor, partial curve]
41 | O=C(NCC1CCCO1)c1ccc(NS(=O)(=O)c2ccccc2)cc1 (stereo not drawn) | inconclusive [inhibitor, single point]
42 | COc1cc2c(cc1OC)C(C1C(=O)CC(C)CC1=O)N(C(=O)CCl)CC2 (stereo not drawn) | inconclusive [inhibitor, partial curve]
43 | CC(C)(C)c1ccc(/C=C/C(=O)N2CCOCC2)cc1 | inactive
44 | COc1cccc(N2CCN(C3CC(=O)N(c4cccc(Cl)c4)C3=O)CC2)c1 (stereo not drawn) | active: 44.7 µM
45 | COC(=O)/C=C1\N/C(=N\c2nc(C)cc(C)n2)N(c2ccc(Cl)cc2)C1=O | inconclusive [inhibitor, partial curve]
46 | Cc1ccc2c(CSc3nc4nc(C)cc(C)n4n3)cc(=O)oc2c1 | inactive
47 | COc1cccc(COC(=O)C2CCN(S(=O)(=O)c3ccc(C)cc3)CC2)c1OC | inactive
48 | CCOc1ccc2[nH]c(SCC(=O)OC)c([N+](=O)[O-])c2c1 | active: 44.7 µM
49 | Cc1cccc(/C=N/n2c(C)nc3ccccc3c2=O)c1 | inactive
50 | COc1ccc2nc3ccccc3nc2c1N | inconclusive [inhibitor, partial curve]

Row | SMILES | Potency
51 | Cc1ccc(CNC(=O)CCc2nnc(Cc3ccc(-c4ccccc4)cc3)o2)o1 | active: 25.1 µM
52 | CC(/C=C/C=C/c1ccccc1)=N/NC(=O)C(O)c1ccccc1 (stereo not drawn) | inconclusive [inhibitor, partial curve]
53 | CN(CC(=O)Nc1ccc(F)cc1)C(=O)COC(=O)/C=C/c1ccc(OC(F)F)cc1 | inactive
54 | O=C(C[n+]1ccccc1)N/N=C/c1ccco1 | inconclusive [inhibitor, partial curve]
55 | COc1cc2ccccc2cc1C(=O)NCC(c1cccs1)N(C)C (stereo not drawn) | inactive
56 | CCCCn1c(SCc2ncc(-c3ccccc3)o2)nc2cc(S(N)(=O)=O)ccc21 | active: 20 µM
57 | COc1ccc(OC(=O)C(C)N2C(=O)c3ccccc3C2=O)cc1 (stereo not drawn) | inconclusive [inhibitor, partial curve]
58 | CCN(CC(=O)NCCc1ccc(S(N)(=O)=O)cc1)Cc1nc2ccccc2c(=O)[nH]1 | inconclusive [inhibitor, single point]
59 | Cc1nnc(SCC(=O)c2ccc(C(C)C)cc2)s1 | inactive
60 | COc1ccc(/C=C2\C(=O)NC(=O)N(CCC3=CCCCC3)C2=O)c(OC)c1 | inconclusive [inhibitor, full curve, poor fit]
61 | Cc1ccc(OCc2nnc(SCC(=O)c3ccccc3)n2Cc2ccco2)cc1 | inactive
62 | CCOC(=O)c1cc(OC(=O)c2ccccc2OC)n(-c2ccccc2)n1 | active: 35.5 µM
63 | COc1cccc(CNC(=O)CCC2CCCN(C(=O)c3csc(C(C)C)n3)C2)c1 (stereo not drawn) | inactive
64 | Nc1nc(N2CCOCC2)cc(=O)[nH]1 | inconclusive [inhibitor, full curve, poor fit]
65 | O=C(C1CCN(C2CC(=O)N(c3cccc(Cl)c3)C2=O)CC1)N1CCCC1 (stereo not drawn) | active: 22.4 µM
66 | O=C1c2ccccc2C(Nc2ccc(S(=O)(=O)N3CCCCC3)cc2)N1Cc1ccco1 (stereo not drawn) | inconclusive [inhibitor, partial curve]
67 | Cc1[nH]c(C)c(S(=O)(=O)Nc2ccc(OC(F)(F)F)cc2)c1C(=O)N1CCCCC1 | inactive
68 | CCN(CC(=O)NCc1cccs1)C(=O)c1ccc(-c2cccc(C(F)(F)F)c2)o1 | inconclusive [inhibitor, partial curve]
69 | Cn1cc(S(=O)(=O)N2CCCCCC2)cc1C(=O)N1CCN(c2ccccc2F)CC1 | inactive
70 | Cc1nn(Cc2ccc(Cl)cc2)c(C)c1NC(=O)c1cc(-c2ccco2)on1 | inconclusive [inhibitor, partial curve]
71 | CCC(NC(C)C)C(O)c1ccc(O)c(O)c1 (stereo not drawn) | inconclusive [inhibitor, partial curve]
72 | COc1cc2c(cc1OC)-c1c(OC)c(OC)cc3c1C(C2)N(C)CC3 (stereo not drawn) | inconclusive [inhibitor, partial curve]
73 | O=C(NCCN1CCCCCC1)C1CCC(CNS(=O)(=O)c2cccc3cccnc23)CC1 (stereo not drawn) | inconclusive [inhibitor, partial curve]
